Paper PMC4336329 (PLoS ONE, 2015)
Hit rate of the full screen: of about 310,000 compounds, about 14,000 (4.5%) showed an effect of 50% or more. Effects have a minus sign here. This is one part of the list.

Target: human ether-à-go-go-related gene (hERG) potassium channel (human, UniProt Q12809)
Experiment: primary screen, population patch clamp on CHO cells stably expressing hERG
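Further: peak tail current of the secondary pulse compared with the same well before compound.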

Chain of human ether-à-go-go-related gene (hERG) potassium channel (Q12809 whole entry, looked up): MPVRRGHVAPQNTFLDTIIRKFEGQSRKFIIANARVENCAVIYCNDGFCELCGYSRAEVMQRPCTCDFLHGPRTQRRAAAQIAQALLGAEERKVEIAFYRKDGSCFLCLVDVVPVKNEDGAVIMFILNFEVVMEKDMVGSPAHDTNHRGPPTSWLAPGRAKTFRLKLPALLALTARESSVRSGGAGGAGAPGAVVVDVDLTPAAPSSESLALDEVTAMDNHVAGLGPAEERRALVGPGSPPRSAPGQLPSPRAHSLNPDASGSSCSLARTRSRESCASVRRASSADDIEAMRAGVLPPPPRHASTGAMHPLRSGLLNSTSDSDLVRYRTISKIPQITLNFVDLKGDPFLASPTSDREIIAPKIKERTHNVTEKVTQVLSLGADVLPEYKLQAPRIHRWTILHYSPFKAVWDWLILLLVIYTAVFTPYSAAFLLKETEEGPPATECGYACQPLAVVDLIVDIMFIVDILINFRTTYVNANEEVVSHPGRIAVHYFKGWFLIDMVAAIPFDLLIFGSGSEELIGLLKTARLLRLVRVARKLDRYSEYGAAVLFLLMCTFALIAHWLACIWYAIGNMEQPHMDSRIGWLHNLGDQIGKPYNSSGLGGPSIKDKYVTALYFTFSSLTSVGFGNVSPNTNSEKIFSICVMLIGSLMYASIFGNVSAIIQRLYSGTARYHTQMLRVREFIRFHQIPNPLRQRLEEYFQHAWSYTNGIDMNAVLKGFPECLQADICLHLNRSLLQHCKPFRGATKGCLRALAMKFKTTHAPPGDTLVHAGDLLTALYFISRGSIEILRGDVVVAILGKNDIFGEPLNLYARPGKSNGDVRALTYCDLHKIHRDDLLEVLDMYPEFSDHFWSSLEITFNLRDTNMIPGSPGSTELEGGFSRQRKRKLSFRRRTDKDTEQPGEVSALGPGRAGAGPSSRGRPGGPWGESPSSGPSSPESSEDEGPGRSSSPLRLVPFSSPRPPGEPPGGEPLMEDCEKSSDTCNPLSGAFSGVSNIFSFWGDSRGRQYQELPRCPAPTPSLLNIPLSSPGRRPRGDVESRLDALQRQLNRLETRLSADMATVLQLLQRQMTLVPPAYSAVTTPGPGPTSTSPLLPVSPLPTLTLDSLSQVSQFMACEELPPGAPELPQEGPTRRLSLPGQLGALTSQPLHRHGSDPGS

Compared with `COc1ccc(OC)c(C2=NOC(C(=O)NCc3cccs3)C2)c1` (stereo not drawn), `COc1ccc(S(=O)(=O)NCC(=O)NCCc2ccc(OC)c(OC)c2)cc1` is higher in “hERG current change (%, negative = inhibition) at 10uM” value: -13.5% for the first, 14.9% for the second.

Compared with `Cc1ccc(S(=O)(=O)Nc2cc(-c3ccccc3)nn2C)cc1Cl`, `O=C(Nc1cccc(Cl)c1)Nc1nc(-c2ccccc2)cs1` is higher in “hERG current change (%, negative = inhibition) at 10uM” value: 12.2% for the first, 23.3% for the second.

Compared with `COc1ccc(Nc2ccc(S(=O)(=O)N3CCCCCC3)cc2[N+](=O)[O-])cc1`, `COc1cccc(CNC(=O)c2ccc(S(=O)(=O)N3CCCC3)cc2)c1` is higher in “hERG current change (%, negative = inhibition) at 10uM” value: -5.69% for the first, -4.54% for the second.

Going from `N#CNC1=NCN(CCc2ccccc2)CN1` to `CN(C(=O)CSc1nnn(C)n1)c1ccccc1`, the “hERG current change (%, negative = inhibition) at 10uM” value falls from 14.2% to 10.7%.

Compared with `CCCOC(=O)C1[C@H]2C(=O)N(CCCOC)C[C@]23C=C[C@H]1O3` (stereo partly drawn), `COCCCn1c(C)cc(C(=O)CN2c3cccc4cccc(c34)S2(=O)=O)c1C` is lower in “hERG current change (%, negative = inhibition) at 10uM” value: -3.36% for the first, -12.9% for the second.

Compared with `Cc1ccc(N2CC(C(=O)OCC(=O)Nc3ccc(Cl)cc3)CC2=O)cc1` (stereo not drawn), `CC(C)(C)c1ccc(NC(=O)COC(=O)C2(C)CC2(Cl)Cl)cc1` (stereo not drawn) is higher in “hERG current change (%, negative = inhibition) at 10uM” value: -3.67% for the first, 11.1% for the second.

Compared with `CS(=O)(=O)N1CCN(Cc2ccc([N+](=O)[O-])cc2)CC1`, `CCN1CCN(C(c2cccs2)C(C)NS(=O)(=O)c2ccc(Br)cc2)CC1` (stereo not drawn) is lower in “hERG current change (%, negative = inhibition) at 10uM” value: -23.6% for the first, -48.1% for the second.

First: CCCCN(C(=O)c1cccc(S(=O)(=O)N2CC(C)OC(C)C2)c1)c1c(N)n(CC(C)C)c(=O)[nH]c1=O (stereo not drawn)
Second: Cn1c(SCC(=O)NCc2ccco2)nnc1-c1ccc(S(=O)(=O)N2CCOCC2)cc1
The “hERG current change (%, negative = inhibition) at 10uM” value of the first is higher: 5.66% for the first, -24.5% for the second.

Going from `COc1cccc(Nc2n[nH]c(=S)s2)c1` to `Cc1nnc(NC(=O)CSc2ccc(-c3cccnc3)nn2)s1`, the “hERG current change (%, negative = inhibition) at 10uM” value falls from 27.2% to -3.15%.

First: CC1CCN(CC(=O)c2cccs2)CC1
Second: CC1CCN(Cc2cc(=O)oc3cc(O)c(Cl)cc23)CC1
The “hERG current change (%, negative = inhibition) at 10uM” value of the first is lower: -2.86% for the first, 9.11% for the second.

Compared with `O=C(CSc1nccc(=O)[nH]1)N1N=C2/C(=C/c3ccco3)CCCC2C1c1ccco1` (stereo not drawn), `O=C(O)CC(c1ccc(C(F)(F)F)cc1)N1Cc2ccccc2C1=O` (stereo not drawn) is lower in “hERG current change (%, negative = inhibition) at 10uM” value: 17.4% for the first, 15.9% for the second.

Going from `O=C(Oc1ccc(C(=S)N2CCOCC2)cc1)c1cccc(Cl)c1` to `Cc1cccc(C(=O)Oc2ccc(/C=N/NC(=O)c3ccncc3)cc2)c1`, the “hERG current change (%, negative = inhibition) at 10uM” value falls from 20.6% to 3.1%.

Going from `O=C(CSc1nc2c(sc3ccccc32)c(=O)n1CCCN1CCOCC1)NCC1CCCO1` (stereo not drawn) to `O=C(c1cc2ccccc2oc1=O)N1CCC2(CC1)OCCO2`, the “hERG current change (%, negative = inhibition) at 10uM” value rises from -14.3% to -8.56%.

First: Cc1cc(C(F)F)nn1CC(=O)NC1CCCC1
Second: COCCN(C(=O)CNC(=O)c1ccco1)C(C(=O)NC1CCCC1)c1ccc(OC)c(OC)c1 (stereo not drawn)
The “hERG current change (%, negative = inhibition) at 10uM” value of the first is higher: 1.56% for the first, -3.01% for the second.

First: CO/N=C/C(=N\Nc1ccc(C)cc1)C(=O)c1ccc(OC)cc1
Second: COC(=O)C1=NN(c2ccc(C)cc2)C2C(=O)N(c3ccccc3OC)C(=O)C12 (stereo not drawn)
The “hERG current change (%, negative = inhibition) at 10uM” value of the first is higher: 17.1% for the first, 8.27% for the second.

First: O=C(Nc1nnc(C2CC2)s1)c1ccccn1
Second: CCC1CCc2c(sc(N)c2C(N)=O)C1 (stereo not drawn)
The “hERG current change (%, negative = inhibition) at 10uM” value of the first is higher: 6.44% for the first, 4.85% for the second.

First: N#Cc1nc(-c2cccs2)oc1N1CCN(c2ccccc2)CC1
Second: Cc1cc(C)n(CC(O)CN(c2ccccc2)S(=O)(=O)c2ccc3ccccc3c2)n1 (stereo not drawn)
The “hERG current change (%, negative = inhibition) at 10uM” value of the first is higher: 0.553% for the first, -6.13% for the second.

Going from `CC1(C)NC(=O)N(CC(O)COc2ccc(-c3ccc(C#N)cc3)cc2)C1=O` (stereo not drawn) to `CCOc1ccc(CNC(=O)Cn2c(=O)c3cccn3c3ccccc32)cc1`, the “hERG current change (%, negative = inhibition) at 10uM” value rises from -14.8% to 9.35%.

First: Cc1occc1C(=O)Nc1sc2c(c1C(N)=O)CCCCC2
Second: CC1CCc2c(sc(NC(=O)C3CCCO3)c2C#N)C1 (stereo not drawn)
The “hERG current change (%, negative = inhibition) at 10uM” value of the first is lower: 8.66% for the first, 9.45% for the second.

First: CNc1nc(SCc2ccc(C)cc2)nc2c1CCCC2
Second: Cc1ccc(F)cc1NC(=O)N1c2ccccc2NC(=O)CC1C (stereo not drawn)
The “hERG current change (%, negative = inhibition) at 10uM” value of the first is lower: -3.23% for the first, 2.32% for the second.

First: Cc1cc(C)n2nc(S(=O)(=O)NC(C)(C)C)nc2n1
Second: Cc1cc(C)c(NC(=O)CC(C)(C)C)c(Cl)c1
The “hERG current change (%, negative = inhibition) at 10uM” value of the first is higher: 16.5% for the first, 3.6% for the second.

Compared with `COc1ccc(-c2ccc3c(c2)c(-c2cccs2)c(-c2cc(OC)cc(OC)c2)n3C)cc1`, `COc1ccc(/C=C/C(=O)c2cc(F)ccc2OC(=O)c2ccccc2)cc1OC` is lower in “hERG current change (%, negative = inhibition) at 10uM” value: 19.6% for the first, 0.112% for the second.

Going from `COc1ccc(/C=N/NC(=O)CNc2n[nH]c(=O)[nH]c2=O)cc1OC` to `CC1(C)Oc2ccc(C(=O)NN)cc2NC1=O`, the “hERG current change (%, negative = inhibition) at 10uM” value rises from 3.73% to 17.5%.

Going from `CCN(CC(=O)Nc1ccc(NC(C)=O)cc1)C(=O)C1CCC1` to `O=C(Nc1ccc2c(c1)OCO2)C1CCN(C(=O)c2ccc([N+](=O)[O-])cc2)CC1`, the “hERG current change (%, negative = inhibition) at 10uM” value falls from 12.5% to -84.2%.

Compared with `C=CCn1c(O)c(C=NCCN2CCOCC2)c(=O)[nH]c1=S`, `COc1ccccc1/C=C/CN1CCCC(CCC(=O)NCc2ccc(F)c(F)c2)C1` (stereo not drawn) is lower in “hERG current change (%, negative = inhibition) at 10uM” value: 4.84% for the first, -70% for the second.

First: CSc1ccc(CNCCCN(C)C)cc1.Cl
Second: CN(C)C(=O)Oc1cccc(OCc2n(C)c3ccccc3[n+]2C)c1.[Cl-]
The “hERG current change (%, negative = inhibition) at 10uM” value of the first is lower: -9.77% for the first, 14.7% for the second.

Going from `CCOC(=O)c1nnn(CC(=O)N2N=C(c3cccc4ccccc34)CC2c2ccccc2)c1C(=O)OCC` (stereo not drawn) to `CCOC(=O)CNC(=O)CSc1ncnc2c1nnn2-c1ccc(F)cc1`, the “hERG current change (%, negative = inhibition) at 10uM” value rises from -2.78% to 7.2%.

Compared with `Cc1ccccc1C1=NC(C(F)(F)F)(C(F)(F)F)c2c(n(C)c(=O)n(C)c2=O)N1`, `CC(=O)c1ccc(NC(=S)Nc2ccn(Cc3ccc(Br)cc3)n2)cc1` is higher in “hERG current change (%, negative = inhibition) at 10uM” value: 3.5% for the first, 14.5% for the second.

For `CCCCSc1nnc([C@@H](NC(=O)OC(C)(C)C)C(C)C)o1`, the “hERG current change (%, negative = inhibition) at 10uM” value was -15.6%.
